Measured values from the supplement of paper PMC10338343.
± gives the standard deviation. Over roughly 3,000 sequences, “pre-steady-state target cleavage rate” has its median near 0.0079; the highest 2% begin near 0.2. This is a selection; strong and weak results do not stand in their true shares.

tested on: MILI (PIWIL2) piRISC loaded with piRNA #2 (26 nt); experiment: pre-steady-state target cleavage rate (min^-1); MIWI and MILI are mouse PIWI proteins and EfPiwi is from a freshwater sponge; tags in brackets are library labels; higher = faster piRNA-guided slicing of the target; details: guide: piRNA #2 5'p-UUAGGUAACCCAGUAGAUCCAGAGGA; auxiliary factor: 500 nM mouse GTSF1
Procedure: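 Cleave-'n-Seq: a library of target RNAs (target site embedded in constant flanks, ACAGCATTCCGCGTTAGTGATATCCG... 5' flank; DNA-blocked outside the site) at 0.1 nM was incubated with 1 nM active mouse MILI or MIWI piRISC (synthetic 5'-monophosphorylated piRNA guide) with or without 500 nM mouse GTSF1 at 33 °C for 1 min to 16 h. Uncleaved targets were sequenced and normalised to non-target controls, and the pooled three trials were fitted to a burst-and-steady-state model to give the pre-steady-state cleavage rate (min^-1; k3 is constrained to at most 1e-4). Sequence is the target site only; target names encode pairing extent (gX:gY) and contiguous / 1-mismatch / 2-mismatch / bulge geometry. Fits with R² ≤ 0 are excluded.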

Sequence	pre-steady-state target cleavage rate
CUUAACCUCUGGAACUAGUGGGUUACCUAA	0.0705 ± 0.016
CUUAUGCUCUGGAUCUACAGGGUUACCUAA	0.0815 ± 0.01
CUUAAGGGCUGGAUCUACUGGGUUACCUAA	0.0437 ± 0.019
CUUAUCCUCUGGAUCUACUGGGUUUCCUAA	0.252 ± 0.072
CUUAAGGAGACCUACUAUCUGGGUUACCUAA	< 0.0001
CUUAUCCUCUGGAUCUUCUGGGUUACCAAA	0.0923 ± 0.02
CUUAAGCUCUGGAUCUACUGGGUUCCUAA	0.0109 ± 0.0054
CUUAUCCUCUGGAUCAACUGGGAUACCUAA	0.0168 ± 0.0061
CUUAAGGUCUGGAUCUAGUGGGUUUCCUAA	0.0567 ± 0.016
CUUAUCCACUGGAUCUACUGCGUUACCUAA	0.01 ± 0.0035
CUUAAGGAGUGGAUCUACUGGGUUACUUAA	0.0133 ± 0.0061
CUUAAGGACUGGAUGUAGUGGGUUACCUAA	0.0169 ± 0.0074
CUUAAGGACUGGAUCUAUUGGGUUACCUAA	0.0187 ± 0.0078
CUUAACCUCUGGAUCAUGUGGGUUACCUAA	0.0042 ± 0.004
CUUAAGCUCAGGAUGUACUGGGUUACCUAA	0.0733 ± 0.014
CUUAACCUCUGGAUCUACUGGGUUGACCUAA	0.0901 ± 0.021
CUUAACCUCUGGAUCUACAGGGUUACCAAA	0.0393 ± 0.011
CUUAAGCUCUGCAUCUACUGGGUUACCAAA	0.0827 ± 0.019
CUUAAGGAGAGGAUCUAGCUGGGUUACCUAA	< 0.0001
CUUAAGCUCUGGAUUCUACUGGGUUACCUAA	0.0799 ± 0.023
CUUAUCCUCUGGAUCUUCUGGGUUACGUAA	0.0581 ± 0.016
CUUAACCUCUGGAUCCUACUGGGUUACCUAA	0.0602 ± 0.017
CUUAAGGAGAGGUAUCUACUGGGUUACCUAA	0.00554 ± 0.0041

Sequence	pre-steady-state target cleavage rate
CUUAAGCUCUCGAUCUACAGGGUUACCUAA	0.0883 ± 0.013
CUUAAGGACUGGUUCUACUGGGUUACCUUA	0.0139 ± 0.01
CUUAACCUCUGGAUUUACUGGGUUACCUAA	0.137 ± 0.024
CUUAAGCUCUGGAACUACUGGGUUUCCUAA	0.0736 ± 0.03
CUUAAGGACUGAAUCUACUGGGUUACCUAA	0.019 ± 0.011
CUUAACCUCUGGAUCUACUGGGUUAUCUAA	0.082 ± 0.018
CUUAUGCACUGGAUCUACUGGGUUACCUAA	0.12 ± 0.015
CUUAACCUCUGGAUGUACUGGGUUAGCUAA	0.0271 ± 0.011
CUUAACCUCAGGAUGUACUGGGUUACCUAA	0.0727 ± 0.016
CUUAAGCUGUGGAUCUACUGGGUAACCUAA	0.00606 ± 0.006
CUUAUCCUCGUGGAUCUACUGGGUUACCUAA	0.0461 ± 0.025
CUUAAGGAGACCUAGAUGUGCGUUACCAAA	< 0.0001
CUUAACCUCUCGAUGUACUGGGUUACCUAA	0.0988 ± 0.02
CUUAAGGUCUGGAUCUACUGGGAUACCUUA	0.00686 ± 0.0031
CUUAAGCUCUGGAUCUACUGGGAAACCUAA	0.0263 ± 0.009
CUUAAGGAGAGGAUCUACUGGGUUACCUCAA	0.007 ± 0.0047
CUUAUCCUCUGGAUCUACUGGGUUAACCUAA	0.131 ± 0.024
CUUAUCCUGUCGAUCUACUGGGUUACCUAA	0.114 ± 0.02
CUUAAGGUCUGGAUCUACGGGGUUACCUAA	0.0826 ± 0.0095
CUUAACGUCUGGAUGUACUGGGUUACCUAA	0.0455 ± 0.025
CUUAACGUCUGGAUCAACUGGGUUACCUAA	0.0578 ± 0.014
CUUAAGGACAGGAUGUACUGGGUUACCUAA	0.0124 ± 0.01
CUUAACCUCUGGAUCUACUGGAUUACCUAA	0.0249 ± 0.0075
